Reference: patent US20190016800A1 (NANJING LEADS BIOLABS, published 2019)

Molecular target: T1, Human LAG-3 protein (Cat#LA3-5222, Acrobiosystems) (human, UniProt P18627 23-450)
T1 construct: Bought protein; also called recombinant human LAG-3; LAG3 recombinant protein
T1 sequence: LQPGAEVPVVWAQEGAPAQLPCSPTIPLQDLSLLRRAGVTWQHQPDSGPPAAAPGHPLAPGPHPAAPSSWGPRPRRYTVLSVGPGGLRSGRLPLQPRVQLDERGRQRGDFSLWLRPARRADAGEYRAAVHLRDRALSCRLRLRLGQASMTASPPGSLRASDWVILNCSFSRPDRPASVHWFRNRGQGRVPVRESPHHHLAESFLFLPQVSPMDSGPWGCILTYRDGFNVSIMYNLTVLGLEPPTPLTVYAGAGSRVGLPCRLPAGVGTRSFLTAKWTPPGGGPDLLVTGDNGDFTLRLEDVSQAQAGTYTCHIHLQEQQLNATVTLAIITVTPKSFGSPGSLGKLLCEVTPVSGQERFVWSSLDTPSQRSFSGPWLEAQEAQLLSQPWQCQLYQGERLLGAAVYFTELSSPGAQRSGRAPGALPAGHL
Test: phage ELISA on coated LAG3

B1: clone 13# as single chain Fv displayed on phage (scFv)
scFv: QVQLQESGGGVVRPGGSLRLSCAASGFTFDDYGMSWVRQAPGKGLEWVSGINWSGGSTYYADSVKGRSTISRDNSKNTLYLQMNSLRAEDTAVYYCATGGYWGQGTLVTVSSSGGSTITSYNVYYTKLSSSGT[gap - about 120 residues]
B1: binds.
